# Experimental data published in the supplement of paper PMC7826260.
# Some of the results follow. Each Rep nickase domain was tested in vitro on the same pool of single strands at 3 µM enzyme and 37 °C for 1 h; the strands have 90 letters, of which the middle is given. The score is log2 (uncut reads / reads without enzyme); more negative means more cut, near 0 not cut, and no call is made. Shares of all reads are compared; uncut strands gain when others are lost, and binding without cutting may add a little.
# Experiments:
# Assay in all cases: uncleaved DNA left, log2 of reads against the no-enzyme library (log2 ratio); higher = less cleavage (more negative = more Rep cleavage of the k-mer); sequences stand for … in CTCGTCCG…ACCGGAGA
# [1] = test system: T1, Rep nickase domain of Muscovy duck circovirus
# T1 sequence (Rep 1-111, printed without the tag): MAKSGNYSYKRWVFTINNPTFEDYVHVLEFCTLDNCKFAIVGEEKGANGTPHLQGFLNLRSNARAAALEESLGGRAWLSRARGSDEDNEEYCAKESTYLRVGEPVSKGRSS
# Description: (§1)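 A pool of 90-nt single-stranded DNAs with seven random bases just before the constant AC of the nick site (name = the seven bases) was cut by 3 µM recombinant His6-SUMO-tagged Rep nickase domain (300 nM DNA, 50 mM HEPES pH 8.0, 50 mM NaCl, 1 mM MnCl2, 1 h, 37 °C, three replicates). Uncut DNA was amplified and sequenced.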
# [2] = test system: T2, Rep nickase domain of banana bunchy top virus
# T2 sequence (Rep 1-94, printed without the tag): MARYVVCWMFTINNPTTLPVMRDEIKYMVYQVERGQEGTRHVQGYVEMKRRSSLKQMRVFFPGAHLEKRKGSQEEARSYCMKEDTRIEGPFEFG
# Description: as §1
# [3] = test system: T3, Rep nickase domain of cabbage leaf curl virus
# T3 sequence (Rep 1-116, printed without the tag): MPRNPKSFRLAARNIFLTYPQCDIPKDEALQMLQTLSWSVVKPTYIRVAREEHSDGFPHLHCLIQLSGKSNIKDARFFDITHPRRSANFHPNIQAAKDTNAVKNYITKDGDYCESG
# Description: as §1
# [4] = test system: T4, Rep nickase domain of chickpea chlorotic dwarf virus
# T4 sequence (Rep 1-124, printed without the tag): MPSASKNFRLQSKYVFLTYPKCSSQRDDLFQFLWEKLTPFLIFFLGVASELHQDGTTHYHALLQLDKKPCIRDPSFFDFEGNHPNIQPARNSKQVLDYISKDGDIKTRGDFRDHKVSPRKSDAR
# Description: as §1
# [5] = test system: T5, Rep nickase domain of faba bean necrotic yellows virus
# T5 sequence (Rep 1-98, printed without the tag): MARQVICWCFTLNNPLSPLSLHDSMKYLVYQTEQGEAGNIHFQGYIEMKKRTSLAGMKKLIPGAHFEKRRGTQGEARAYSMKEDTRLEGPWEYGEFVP
# Description: as §1
# [6] = test system: T6, Rep nickase domain of maize striate mosaic virus
# T6 sequence (Rep 1-117, printed without the tag): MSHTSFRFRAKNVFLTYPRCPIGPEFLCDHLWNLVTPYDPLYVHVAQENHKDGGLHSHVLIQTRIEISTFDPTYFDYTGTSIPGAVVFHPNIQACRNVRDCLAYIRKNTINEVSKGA
# Description: as §1
# [7] = test system: T7, Rep nickase domain of porcine circovirus 2
# T7 sequence (Rep 2-116, printed without the tag): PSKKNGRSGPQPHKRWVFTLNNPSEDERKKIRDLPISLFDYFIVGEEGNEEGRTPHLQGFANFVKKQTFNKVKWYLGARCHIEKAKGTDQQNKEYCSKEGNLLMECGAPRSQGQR
# Description: as §1
# [8] = test system: T8, Rep nickase domain of tomato golden mosaic virus
# T8 sequence (Rep 1-124, printed without the tag): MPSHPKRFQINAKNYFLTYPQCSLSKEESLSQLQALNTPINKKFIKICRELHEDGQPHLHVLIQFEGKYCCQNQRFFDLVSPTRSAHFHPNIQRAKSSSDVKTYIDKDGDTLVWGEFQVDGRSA
# Description: as §1
# [9] = test system: T9, Rep nickase domain of tomato yellow leaf curl virus
# T9 sequence (Rep 1-136, printed without the tag): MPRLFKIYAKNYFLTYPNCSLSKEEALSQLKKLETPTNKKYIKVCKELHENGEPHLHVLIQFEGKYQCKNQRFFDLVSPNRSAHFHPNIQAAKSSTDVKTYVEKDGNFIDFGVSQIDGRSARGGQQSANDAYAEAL
# Description: as §1
# [10] = test system: T10, Rep nickase domain of wheat dwarf virus
# T10 sequence (Rep 1-137, printed without the tag): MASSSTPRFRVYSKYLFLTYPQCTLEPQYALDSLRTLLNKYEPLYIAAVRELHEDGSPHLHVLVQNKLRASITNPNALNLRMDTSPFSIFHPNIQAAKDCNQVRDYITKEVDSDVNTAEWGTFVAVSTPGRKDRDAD
# Description: as §1
Sequence,uncleaved DNA left (log2) [1],uncleaved DNA left (log2) [2],uncleaved DNA left (log2) [3],uncleaved DNA left (log2) [4],uncleaved DNA left (log2) [5],uncleaved DNA left (log2) [6],uncleaved DNA left (log2) [7],uncleaved DNA left (log2) [8],uncleaved DNA left (log2) [9],uncleaved DNA left (log2) [10]
CGGGCTG,-0.0591,0.0197,0.172,0.849,-0.0517,1.64,0.0623,0.00607,-0.12,-0.145
CGGCCGC,-0.0584,0.0581,-0.0874,-0.025,0.00876,-0.157,-0.00422,0.000633,-0.0223,-0.0191
CGATAAT,-2.46,-0.0907,-0.186,-1.04,0.0114,-0.205,-2.92,0.0191,0.00881,-0.115
ATGGCGG,0.00146,-0.0455,-0.318,-0.116,0.00682,-0.433,0.144,0.0429,-0.0911,-0.0988
TGATGTG,0.013,-0.069,-0.749,-0.316,0.0298,-1.04,0.133,-0.0617,-0.0231,-0.13
TCTACGT,0.0668,-0.0322,0.379,-0.286,0.0325,0.414,0.00988,-0.00878,-0.0582,0.0523
ATACCAA,0.0546,-0.00577,0.00445,0.0117,0.0493,-0.0145,0.0761,-0.0671,0.0579,0.0615
TACGAGC,0.0798,0.197,0.351,0.851,0.033,0.649,0.182,0.143,0.00823,0.11
AGTTGTA,-0.0819,-0.1,-0.104,-0.487,-0.0522,-0.438,-2.33,-0.0507,-0.0658,-0.0532
AGTTCTA,-0.137,-0.0419,0.087,-0.432,-0.0434,0.134,-0.914,0.0649,0.112,0.0131
CTCACAC,0.0333,-0.0818,-0.00343,-0.572,0.0181,-0.601,0.0453,-0.161,-0.104,-0.0704
ACCACTC,-0.0603,-0.118,-0.146,-0.439,-0.042,-0.726,0.0602,-0.113,-0.233,-0.148
GACACTG,0.082,0.0758,0.0319,0.599,-0.0437,0.924,0.1,-0.0216,0.0249,0.0799
TGCTGTC,-0.0757,-0.114,-0.0119,0.241,-0.137,0.341,0.11,-0.133,-0.0854,-0.144
AAGACAC,0.00164,0.00278,0.169,0.28,-0.143,0.293,-0.071,-0.000669,-0.0734,0.132
TCAAAAG,-0.0489,-0.0376,-0.68,-0.626,0.00556,-1.21,0.229,-0.0235,0.0535,-0.122
TATGGCG,-0.0467,0.0356,-0.509,0.779,-0.0313,-0.132,0.0284,-0.0846,0.0308,-0.181
GATGGTG,-0.0692,0.0256,-0.474,-0.361,0.0503,-0.757,0.0863,0.0254,-0.154,-0.116
GTTATGA,0.00828,0.0773,0.25,0.809,-0.0141,1.73,0.0362,0.0501,0.0245,0.104
GTATGCC,0.105,0.00665,0.128,0.531,0.0345,0.287,0.0745,-0.00251,0.134,-0.00339
CTTGCAG,-0.0543,0.06,-0.843,-0.348,0.0609,-1.05,0.253,-0.0395,0.115,-0.0513

Sequence,uncleaved DNA left (log2) [1],uncleaved DNA left (log2) [2],uncleaved DNA left (log2) [3],uncleaved DNA left (log2) [4],uncleaved DNA left (log2) [5],uncleaved DNA left (log2) [6],uncleaved DNA left (log2) [7],uncleaved DNA left (log2) [8],uncleaved DNA left (log2) [9],uncleaved DNA left (log2) [10]
CGGCACT,-0.0651,-0.191,0.0444,0.0861,-0.0828,1.02,-0.0406,-0.193,0.0719,0.0541
GTCCGTA,0.0295,0.0231,0.153,0.541,-0.0909,1.26,-0.138,-0.098,-0.0342,0.00993
AGGCGCC,-0.000931,-0.0681,-0.0261,0.0754,0.0243,-0.154,0.137,0.0734,-0.0812,0.0432
TGGATGA,0.0903,-0.0392,0.495,1.17,-0.0503,1.36,0.0534,-0.0223,0.01,0.133
GATGTCG,0.0351,-0.0514,-0.649,0.0782,0.000175,-0.682,0.0552,-0.0874,-0.0335,-0.0909
GCATTAA,-0.0471,-0.0606,0.0231,0.263,-0.0295,-0.13,-0.0135,0.0468,-0.0544,0.0398
GGACGAA,0.11,0.247,0.939,1.95,0.262,2.26,0.27,0.102,0.168,0.378
TAGTATT,-3.86,-4.48,-4.14,-3.57,-4.07,-2.73,-4.51,-3.45,-0.142,-4.02
GGGCTGC,-0.00592,0.157,0.766,1.81,-0.0824,2.15,0.103,0.07,-0.0925,0.153
TTTGCCA,0.047,0.0526,-0.352,-1.14,0.105,-0.955,-0.0664,0.000914,0.105,-0.0208
CCTCCAT,0.0772,0.0897,0.191,-0.366,-0.0269,-0.255,0.0617,-0.0351,0.0924,0.105
AAAGCAG,-0.0413,-0.107,-0.147,0.0848,-0.00943,-0.449,0.148,-0.0251,-0.131,-0.0624
ATGTAAT,-1.29,-0.812,-0.0299,-0.531,-0.899,0.142,-3.44,-0.0178,-0.0424,-0.058
GCACAGG,0.0786,0.133,0.152,0.775,0.0841,0.0435,0.139,0.12,0.0637,0.202
TACCGTA,-0.0146,-0.125,-0.324,-2.02,-0.0809,-0.905,-0.447,-0.0547,-0.022,-0.0797
ACGACCG,-0.1,0.00628,-0.46,-0.51,-0.0485,-0.954,0.00696,0.00039,-0.141,-0.158
GCCGTAT,-0.135,-0.152,0.231,0.25,-0.0752,0.389,-0.0963,-0.0187,-0.125,0.0753
GGGGATT,0.087,0.168,0.815,1.95,0.0615,2.32,0.15,-0.0341,0.0424,0.267
CGTTCTC,-0.0822,0.00457,0.0675,0.0766,-0.0999,-0.305,-0.0749,-0.161,-0.0921,-0.0158
GCTGAGT,0.0439,-0.0823,0.037,0.25,0.0693,0.0814,0.148,0.174,0.00726,-0.0154
TGCATCC,0.0325,0.0647,0.131,0.278,-0.144,-0.152,0.0494,-0.089,-0.0171,0.00252

Sequence,uncleaved DNA left (log2) [1],uncleaved DNA left (log2) [2],uncleaved DNA left (log2) [3],uncleaved DNA left (log2) [4],uncleaved DNA left (log2) [5],uncleaved DNA left (log2) [6],uncleaved DNA left (log2) [7],uncleaved DNA left (log2) [8],uncleaved DNA left (log2) [9],uncleaved DNA left (log2) [10]
AAGGTGA,0.0835,0.081,0.224,0.807,0.0756,0.77,0.246,0.179,0.0495,0.0396
TTCCCTC,-0.0123,0.0622,0.181,-0.562,-0.0278,-0.216,-0.506,-0.0405,-0.0495,0.144
CTGATCT,-0.0689,-0.0317,0.011,-0.63,-0.114,0.183,-0.242,-0.0717,0.0189,0.109
CGCAATC,-0.0444,0.0157,-0.243,-0.102,-0.0798,-0.358,-0.0553,-0.0502,-0.0803,-0.0101
GAGGCTA,-0.0101,0.0589,0.521,1.04,-0.0771,1.77,-0.00951,0.0319,-0.0787,0.0407
TCGGACG,0.0137,0.133,-0.319,-0.311,-0.0755,-0.885,0.0618,0.00712,0.139,0.0982
TGCCTCA,-0.036,-0.103,0.0828,-0.441,-0.0407,0.149,-0.105,0.000875,-0.0224,-0.00204
CCAGTTA,0.115,-0.13,-0.164,-1.14,-0.107,-0.574,-0.0176,-0.0126,-0.147,-0.0781
AGCATCC,0.00136,0.113,0.113,0.28,-0.0478,-0.0273,-0.193,0.000449,0.0609,0.139
CATCCAC,0.088,-0.00627,-0.116,-0.421,0.0237,-0.783,0.0445,-0.0429,0.0196,0.0476
AGAAACG,0.0125,0.111,-0.654,-0.593,-0.00113,-1.14,0.199,-0.0242,0.0628,-0.0599
GAACCTT,0.0225,0.0076,0.252,-0.951,-0.0707,1.47,-0.254,-0.137,0.00802,0.0336
CTCAAGC,0.0964,0.0595,-0.062,-0.197,0.169,-0.949,0.0802,0.155,0.0225,0.142
GCCTTCC,-0.0817,-0.0585,0.0552,0.327,-0.153,0.19,-0.0528,-0.16,-0.0992,-0.113
CTGCGGT,0.0355,-0.038,-0.554,-0.553,0.0448,-0.726,0.162,0.0311,0.0791,-0.0598
TTAGTGA,0.19,-0.103,-0.115,-0.342,0.0882,-0.875,0.0164,0.0714,0.0407,-0.0431
TGCGTGG,0.0882,-0.00391,0.0706,0.225,-0.0369,0.484,0.0849,0.0702,0.0406,-0.133
AACACCA,-0.0349,0.00231,-0.142,-2.44,-0.061,-0.269,-0.0992,-0.0192,-0.0401,-0.0445
CAGGCAA,0.0173,-0.0841,0.045,0.213,-0.0978,0.0363,0.0135,0.0567,-0.0527,0.000972
TGCTAGA,0.128,0.13,-0.0758,-0.215,0.131,-0.708,0.211,0.146,0.111,0.131
